Results reported in patent US7566535B2, “Enhanced oligonucleotide-mediated nucleic acid sequence alteration” (University of Delaware, priority 2002, dated 2009).
Like-named read-outs stand apart in the source and are kept apart here. In the oligonucleotide strings, read from the 5' end, every base follows the letter of its sugar. An asterisk marks phosphorothioate; unmarked linkages are phosphodiester. Other units and linkages are bracketed, terminal groups are in braces. A string of capitals states the bases alone. d = 2'-deoxy (DNA)

Legend:
[1] = system: integrated pAUR101-HYG(rep)eGFP; conditions: wild type
[2] = system: pAURHYG(Δ)eGFP; conditions: for Average colony count on hygromycin plates / hygromycin-resistant colonies per aureobasidin-resistant colony: wild-type LSY678; for Fold Alteration in Correction Efficiency: 5 μg oligo
[3] = system: pAURHYG(x)eGFP; assay: Hygromycin gene correction in yeast LSY678 with or without trichostatin A; conditions: Cells pre-treated with 50 μg/mL trichostatin A; 5 μg oligo

B1: HygE3T/74: 74-base single-stranded DNA oligonucleotide, three phosphorothioate linkages at each end, SEQ ID NO: 8 (nucleic acid)
DNA: dC*dT*dC*dGdTdGdCdTdTdTdCdAdGdCdTdTdCdGdAdTdGdTdAdGdGdAdGdGdGdCdGdTdGdGdAdTdAdCdGdTdCdCdTdGdCdGdGdGdTdAdAdAdTdAdGdCdTdGdCdGdCdCdGdAdTdGdGdTdTdTdC*dT*dA*dC
Average colony count on hygromycin plates ([1]; 2.5 μg oligo): 652 | Average colony count on hygromycin plates ([1]; 5.0 μg oligo): 1,060 | Average colony count on hygromycin plates ([1]; 7.5 μg oligo): 2,052 | Average colony count on hygromycin plates ([1]; 10.0 μg oligo): 2,012 | Average colony count on hygromycin plates ([2]; 1.0 μg oligo): 1 | hygromycin-resistant colonies per aureobasidin-resistant colony ([2]; 1.0 μg oligo): 0.01 | Average colony count on hygromycin plates ([2]; 2.5 μg oligo): 18 | hygromycin-resistant colonies per aureobasidin-resistant colony ([2]; 2.5 μg oligo): 0.11 | Average colony count on hygromycin plates ([2]; 5.0 μg oligo): 70 | hygromycin-resistant colonies per aureobasidin-resistant colony ([2]; 5.0 μg oligo): 0.43 | Average colony count on hygromycin plates ([2]; 7.5 μg oligo): 47 | hygromycin-resistant colonies per aureobasidin-resistant colony ([2]; 7.5 μg oligo): 0.29 | Average colony count on hygromycin plates ([2]; 10.0 μg oligo): 11 | hygromycin-resistant colonies per aureobasidin-resistant colony ([2]; 10.0 μg oligo): 0.07 | Fold Alteration in Correction Efficiency ([2]; mre11 mutant): 1.10x | Fold Alteration in Correction Efficiency ([2]; msh2 mutant): 0x | Fold Alteration in Correction Efficiency ([2]; msh3 mutant): 0.02x | Fold Alteration in Correction Efficiency ([2]; msh6 mutant): 0x | Fold Alteration in Correction Efficiency ([2]; rad1 mutant): 0x | Fold Alteration in Correction Efficiency ([2]; rad10 mutant): 0.04x | Fold Alteration in Correction Efficiency ([2]; rad51/52 mutant): 0.13x | Fold Alteration in Correction Efficiency ([2]; rad51 mutant): 0.47x | Fold Alteration in Correction Efficiency ([2]; rad52 mutant): 0.05x | Fold Alteration in Correction Efficiency ([2]; wild type): 1x | Correction efficiency [3]: 3.3 1/10^5 | Hyg^r [3]: 278
